In the supplement of paper PMC10369915:
This is one part of the list. Rule as the data show it: active = 3.2 or more and inactive = the rest. Most of these values are background signal.

B1: YIPF7_Y59_A54T (peptide)
chain: TYGNLYGSRKQ
B2: VSX2_Y222 (peptide)
chain: AEYGLYGAMVR
B3: XRCC1_Y515 (peptide)
chain: NGEDPYAGSTD
B4: XPNPEP3_Y455_I450L (peptide)
chain: LEPGIYIPEDD
B5: WDR19_Y1230 (peptide)
chain: KIDAKYKKKIE
B6: VPS13B_Y1991 (peptide)
chain: GVASDYKCIDP
B7: VPS35L_Y32 (peptide)
chain: LEFGDYHPLKP
B8: WAS_Y102_W97C_YF (peptide)
chain: CEQELYSQLVF
B9: YBX1_Y145 (peptide)
chain: ADRNHYRRYPR
B10: VWDE_Y1035 (peptide)
chain: KITVIYDGACQ
B11: WWOX_Y287_P282A (peptide)
chain: ATKNDYWAMLA
B12: WDPCP_Y210_L205F_YF (peptide)
chain: FSALDYKIFFF
B13: WAS_Y83_R86H (peptide)
chain: NPQKSYFIHLY
B14: XPA_Y257 (peptide)
chain: LEDDMYRKTCT
B15: XRCC5_Y416_I412V (peptide)
chain: HVKHNYECLVY
B16: XPC_Y669 (peptide)
chain: AAILGYCRGEA
B17: WAS_Y83_S82P_YF (peptide)
chain: NPQKPYFIRLF
B18: YBX1_Y145_P149R_YF (peptide)
chain: ADRNHYRRFRR
B19: XDH_Y1092 (peptide)
chain: NGQAVYAACQT
B20: WNT4_Y113_A114V (peptide)
chain: EAAFVYVISSA
B21: WAS_Y102_YF (peptide)
chain: WEQELYSQLVF
B22: VWF_Y1584_Y1584C (peptide)
chain: GLALRCLSDHS
B23: VWF_Y1570 (peptide)
chain: VREIRYQGGNR
B24: WAS_Y83_F84L (peptide)
chain: NPQKSYLIRLY
B25: VSX2_Y219_G223A (peptide)
chain: SVMAEYGLYAA
B26: WDPCP_Y210_L205F (peptide)
chain: FSALDYKIFYY
B27: VSX2_Y222_YF (peptide)
chain: AEFGLYGAMVR
B28: VWF_Y1570_V1565L (peptide)
chain: LREIRYQGGNR
B29: VSX2_Y219_G223R_YF (peptide)
chain: SVMAEYGLFRA
B30: YES1_Y194_I198V (peptide)
chain: TTKGAYSLSVR
B31: VWA3B_Y918 (peptide)
chain: AKLNIYKRKVE
B32: WWOX_Y293_L291P (peptide)
chain: WAMPAYNRSKL
B33: WAS_Y102_W97C (peptide)
chain: CEQELYSQLVY
B34: YWHAG_Y130 (peptide)
chain: KMKGDYYRYLA
B35: YES1_Y159 (peptide)
chain: QAEEWYFGKMG
B36: WAS_Y83 (peptide)
chain: NPQKSYFIRLY
B37: VWF_Y1570_Y1570C (peptide)
chain: VREIRCQGGNR

What follows are binders tested against SHP2 C-SH2 domain E139D (assay: enrichment score (SH2-bound / input frequency) (ratio); bacterial display of known human phosphotyrosine sites (pTyr-Var adds point mutants) read by sequencing; higher = stronger binding; tyrosines were phosphorylated by kinases first). Conditions: peptide library: pTyr-Var.
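Also: displayed peptides selected on beads carrying the immobilized SH2 domain, with library peptides lacking any tyrosine serving as negative controls.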

Binder	enrichment score
B1	inactive: 0.413
B2	inactive: 0.672
B3	inactive: 0.344
B4	inactive: 0.281
B5	inactive: 0.719
B6	inactive: 0.781
B7	inactive: 0.678
B8	inactive: 0.729
B9	inactive: 0.267
B10	inactive: 0.783
B11	inactive: 0.805
B12	inactive: 0.906
B13	inactive: 1.98
B14	inactive: 0.309
B15	inactive: 1.49
B16	inactive: 0.815
B17	inactive: 0.757
B18	inactive: 0.255
B19	inactive: 0.705

Binder	enrichment score
B20	inactive: 0.796
B21	inactive: 0.801
B22	inactive: 0.62
B23	inactive: 0.36
B24	inactive: 1.53
B25	inactive: 0.846
B26	inactive: 2.05
B27	inactive: 0.809
B28	inactive: 0.575
B29	inactive: 0.99
B30	inactive: 0.883
B31	inactive: 0.576
B32	inactive: 0.655
B33	inactive: 0.865
B34	inactive: 2.4
B35	inactive: 0.878
B36	inactive: 0.756
B37	inactive: 0.564

These binders were tested against SHP2 C-SH2 domain wild-type in the same assay as above. Conditions: peptide library: pTyr-Var.

Binder	enrichment score
B1	inactive: 0.337
B2	inactive: 0.799
B3	inactive: 0.359
B4	inactive: 1.12
B5	inactive: 0.699
B6	inactive: 0.786
B7	inactive: 0.644
B8	inactive: 0.698
B9	inactive: 0.268
B10	inactive: 0.782
B11	inactive: 0.813
B12	inactive: 1.08
B13	inactive: 1.93
B14	inactive: 0.687
B15	inactive: 1.39
B16	inactive: 0.854
B17	inactive: 0.622
B18	inactive: 0.277
B19	inactive: 0.72

Binder	enrichment score
B20	inactive: 0.885
B21	inactive: 0.922
B22	inactive: 0.967
B23	inactive: 0.362
B24	inactive: 1.31
B25	inactive: 0.697
B26	inactive: 2.11
B27	inactive: 0.708
B28	inactive: 0.35
B29	inactive: 0.823
B30	inactive: 0.454
B31	inactive: 0.565
B32	inactive: 0.349
B33	inactive: 1.42
B34	inactive: 2.47
B35	inactive: 1.28
B36	inactive: 0.783
B37	inactive: 0.366

What follows are binders tested against SHP2 N-SH2 domain L43F in the same assay as above. Conditions: peptide library: pTyr-Var.

Binder	enrichment score
B1	inactive: 0.417
B2	inactive: 0.661
B3	inactive: 0.426
B4	inactive: 0.784
B5	inactive: 0.808
B6	inactive: 0.66
B7	inactive: 0.751
B8	inactive: 0.621
B9	inactive: 0.246
B10	inactive: 0.578
B11	inactive: 0.523
B12	inactive: 1.06
B13	inactive: 2.42
B14	inactive: 0.686
B15	inactive: 1.2
B16	inactive: 0.774
B17	inactive: 0.546
B18	inactive: 0.246
B19	inactive: 0.45

Binder	enrichment score
B20	inactive: 0.713
B21	inactive: 0.879
B22	inactive: 0.796
B23	inactive: 0.23
B24	inactive: 1.38
B25	inactive: 1.03
B26	inactive: 2.14
B27	inactive: 0.728
B28	inactive: 0.594
B29	inactive: 0.96
B30	inactive: 0.555
B31	inactive: 0.422
B32	inactive: 0.355
B33	inactive: 0.965
B34	inactive: 2.55
B35	inactive: 0.724
B36	inactive: 0.639
B37	inactive: 0.443

The binders below were run against SHP2 N-SH2 domain T42A in the same assay as above. Conditions: peptide library: pTyr-Var.

Binder	enrichment score
B1	inactive: 0.374
B2	inactive: 0.547
B3	inactive: 0.353
B4	inactive: 0.849
B5	inactive: 0.593
B6	inactive: 0.792
B7	inactive: 0.8
B8	inactive: 0.696
B9	inactive: 0.294
B10	inactive: 0.697
B11	inactive: 0.673
B12	inactive: 0.687
B13	inactive: 2.13
B14	inactive: 0.511
B15	inactive: 1.03
B16	inactive: 0.931
B17	inactive: 0.617
B18	inactive: 0.243
B19	inactive: 0.467

Binder	enrichment score
B20	inactive: 0.846
B21	inactive: 0.897
B22	inactive: 0.834
B23	inactive: 0.315
B24	inactive: 1.25
B25	inactive: 0.836
B26	inactive: 1.96
B27	inactive: 0.673
B28	inactive: 0.308
B29	inactive: 0.993
B30	inactive: 0.867
B31	inactive: 0.559
B32	inactive: 0.374
B33	inactive: 0.823
B34	inactive: 2.15
B35	inactive: 0.892
B36	inactive: 0.635
B37	inactive: 0.406

What follows are binders tested against SHP2 N-SH2 domain T52S in the same assay as above. Conditions: peptide library: pTyr-Var.

Binder	enrichment score
B1	inactive: 0.328
B2	inactive: 0.668
B3	inactive: 0.48
B4	inactive: 1.14
B5	inactive: 0.472
B6	inactive: 0.686
B7	inactive: 1.77
B8	inactive: 0.627
B9	inactive: 0.267
B10	inactive: 0.592
B11	inactive: 0.668
B12	inactive: 1.06
B13	inactive: 2.25
B14	inactive: 0.64
B15	inactive: 1.29
B16	inactive: 0.822
B17	inactive: 0.763
B18	inactive: 0.265
B19	inactive: 0.576

Binder	enrichment score
B20	inactive: 0.753
B21	inactive: 0.822
B22	inactive: 0.665
B23	inactive: 0.408
B24	inactive: 1.55
B25	inactive: 1.05
B26	inactive: 2.43
B27	inactive: 0.605
B28	inactive: 0.506
B29	inactive: 1.14
B30	inactive: 0.702
B31	inactive: 0.613
B32	inactive: 0.417
B33	inactive: 0.789
B34	inactive: 2.01
B35	inactive: 0.82
B36	inactive: 0.627
B37	inactive: 0.453

What follows are binders tested against SHP2 N-SH2 domain wild-type in the same assay as above. Conditions: peptide library: pTyr-Var.

Binder	enrichment score
B1	inactive: 0.407
B2	inactive: 0.972
B3	inactive: 0.246
B4	inactive: 1
B5	inactive: 0.628
B6	inactive: 1.28
B7	inactive: 0.7
B8	inactive: 0.768
B9	inactive: 0.318
B10	inactive: 0.927
B11	inactive: 0.851
B12	inactive: 1.32
B13	inactive: 2.03
B14	inactive: 0.917
B15	inactive: 1.82
B16	inactive: 0.954
B17	inactive: 0.735
B18	inactive: 0.26
B19	inactive: 0.596

Binder	enrichment score
B20	inactive: 0.929
B21	inactive: 1.03
B22	inactive: 1.02
B23	inactive: 0.372
B24	inactive: 1.47
B25	inactive: 0.793
B26	inactive: 1.55
B27	inactive: 0.98
B28	inactive: 0.668
B29	inactive: 1.02
B30	inactive: 0.609
B31	inactive: 0.555
B32	inactive: 0.399
B33	inactive: 1.36
B34	inactive: 2.44
B35	inactive: 1.08
B36	inactive: 0.813
B37	inactive: 0.395
